From ChEMBL document CHEMBL4888484, “Replenishing the malaria drug discovery pipeline: Screening and hit evaluation of the MMV Hit Generation Library 1 (HGL1) against asexual blood stage Plasmodium falciparum ,using a nano luciferase reporter read-out” (2022)
“And” between values parts separate entries of the source, which are not always exact repeats. Equal entries are not always repeated. In all, about 150,000 compounds went through this assay and about 540 (0.36%) showed an effect of 50% or more. This is one part of the list.

Tested on: Plasmodium falciparum
Assay: Primary screen in NF54 nanoGlo assay, in single point, at 2uM, 72h; a lower Z score goes with more inhibition
Type: functional, Erythrocyte
Details: timepoint 72 hour

SMILES | % Inhibition [%] | Z score | % Inhibition (2 µM) | Z score (2 µM)
CC[C@H](NC(=O)Cc1sc(C)nc1C)c1ncnn1C | -8 | 0.89 | – | –
Cc1cnn([C@H]2CCN(Cc3ccccc3)C2)c1NC(=O)Cc1cccc(Cl)c1 | 5 | -0.57 | – | –
O=C(c1ccc2nsnc2c1)N1CC[C@H](n2ccnn2)C1 | 6 | -0.79 | – | –
CCN(Cc1nc(C)no1)C(=O)c1n[nH]c(N)c1Cl | 14 | -1.8 | – | –
CCN(CC)C(=O)c1cnc2nc(C)ccc2c1Nc1cc(C)cc(C)c1 | -7 | 1.11 | – | –
CN1CCOc2ccc(NC(=O)N3CCC[C@H]3c3cccc(F)c3)cc21 | -5 | 0.59 | – | –
CCC1CN(CCNC(=O)C2CCC2c2ccc(F)cc2)CCO1 (stereo not given) | -11 | 1.68 | – | –
CN1CCC(N(c2ccccc2)S(=O)(=O)c2ccsc2)CC1 | -8 | 0.89 | – | –
OC1CCN(c2cc([C@H]3CCOC3)nc(N3CC(O)C3)n2)CC1 | -6 | 0.78 | – | –
CC[C@H](C)N(CC(=O)O)C(=O)Cc1cccc(F)c1F | -13 | 1.59 | – | –
COc1ccc(Cl)cc1NC(=O)c1sc2ncnc(N3CCc4ccccc4C3)c2c1C | -1 | 0.11 | – | –
O=C(NCCC1=CCCCC1)c1ccc(CN2CC(=O)N3CCC[C@H]3C2=O)cc1 | -21 | 3.89 | – | –
CC1CN(CCN2CC(C#N)C3(C2)C(=O)Nc2ccccc23)CCO1 (stereo not given) | -9 | 1.34 | – | –
COc1ccc2cc(C(=O)N3CC(c4nc(-c5cccc(C(F)(F)F)c5)no4)C3)[nH]c2c1 | -8 | 1.58 | – | –
CC(C)NC(=O)N1CCN2C(=O)N(C(C)C)C(=O)[C@H]2C1 | -19 | 3.09 | – | –
Nc1nonc1-c1noc(COc2ccc(Br)cc2)n1 | -10 | 1.28 | – | –
COc1ccc(CCN(CCc2nc(-c3ccc(C)cc3)no2)C(=O)Cc2ccc(F)cc2)cc1OC | -9 | 1.61 | – | –
CC(C)(C)[C@@H](O)CCNS(=O)(=O)C1CC1 | -11 | 1.61 | – | –
O=C(NCc1ccccc1)C1CCN(c2nc3cc(Cl)ccc3s2)CC1 | -5 | 0.95 | – | –
Cc1nc(N2CCOCC2)nc(C)c1NC(=O)Nc1ccccc1F | -6 | 0.99 | – | –
CN(c1ccc(Cl)c(C(=O)NCc2ccccn2)c1)S(C)(=O)=O | 8 | -1.12 | – | –
N#Cc1c(-c2ccccc2)ccn(Cc2cccc(C(F)(F)F)c2)c1=O | -5 | 0.95 | – | –

SMILES | % Inhibition [%] | Z score | % Inhibition (2 µM) | Z score (2 µM)
Cc1nn(C)cc1[C@H](C)Nc1ncnc2[nH]cnc12 | 4 | -0.84 | – | –
CCc1cc(N2CCc3[nH]cnc3C2)nc(N2CCCC2)n1 | -9 | 0.89 | – | –
CCCc1occc1C(=O)N1CCC(Cc2ncc[nH]2)CC1 | -1 | 0.28 | – | –
CC(C)c1cnc(NCCc2noc(C3CC3)n2)nc1 | 7 | -0.85 | – | –
COCCO[C@H]1COCCN(Cc2ccccn2)C1 | 30 | -3.44 | – | –
CC(NCC1COC2(CCCC2)O1)c1cccc(F)c1 (stereo not given) | -18 | 2.4 | – | –
O=C(CNC(=O)c1cccc(Br)c1)NCc1cscn1 | -5 | 0.7 | – | –
O=C(c1ccc2c(c1)CCO2)N(CCO)Cc1ccc(Cl)cc1 | 2 | -0.16 | – | –
COCCOC[C@]1(CNC(=O)c2cccc(OC)c2)C[C@@H](O)[C@@H](O)C1 | -11 | 1.64 | – | –
CCS(=O)(=O)N1CC[C@H]2C(=O)NCCCCCN(Cc3cccnc3)[C@@H]2C1 | -14 | 1.98 | – | –
Cc1ncnc(NCc2ccc(CN3CCCC3)cc2)c1C | 0 | 0.03 | – | –
CN(CCN1CCOC1=O)C[C@@H]1CC=CCC1 | 6 | -1.16 | – | –
COC(=O)c1ccc(-c2nc(CN(C[C@H]3CCC(=O)N3)C(C)C)c(C)o2)cc1 | -2 | 0.34 | – | –
CN1CCN(CCN(Cc2ccc(Br)cc2F)C(=O)CC2CCCC2)CC1 | -4 | 0.66 | – | –
O=C1NCCN1c1cccc(N2C(=O)N[C@@H](Cc3c[nH]c4ccccc34)C2=O)c1 | -10 | 1.94 | – | –
CCn1cc(-c2nn(C)cc2C(=O)NCC2(C(N)=O)CCCC2)cn1 | -16 | 1.71 | – | –
O=C(C1CCC1)N1CCc2sc(S(=O)(=O)Nc3ccc(F)c(Cl)c3)cc2C1 | 3 | -0.52 | – | –
O=S(=O)(CCN1CCCC1)N1CCc2c(F)cc(F)cc21 | -3 | 0.33 | – | –
O=C(Cc1ccccc1F)N[C@H]1CCOC[C@@H]1O | -3 | 0.6 | – | –
O=C(CCCN1C(=O)CNC1=O)N1CCN(Cc2ccc3c(c2)OCO3)CC1 | -9 | 1.41 | – | –
CC1CCC(NS(=O)(=O)CC(=O)N2CCC[C@@H]2Cc2ccccc2Cl)CC1 (stereo not given in full) | 1 | -0.28 | – | –
O=C1NCCN1C(=O)NCc1ccc(-c2ccoc2)o1 | 3 | -0.43 | – | –

SMILES | % Inhibition [%] | Z score | % Inhibition (2 µM) | Z score (2 µM)
COCC(=O)N(CC(=O)N1CCN(c2ccc(-c3cccc(OC)c3)nn2)CC1)Cc1ccc(F)cc1 | -18 | 1.76 | – | –
CNc1ccc(S(N)(=O)=O)cc1NS(=O)(=O)CCC1CC1 | 12 | -1.62 | – | –
COc1ccccc1CC(=O)c1ccc(O)c(CN2CCCC[C@@H]2C)c1O | 3 | -0.49 | – | –
COc1cccc(S(=O)(=O)N2CCC(F)(C(=O)NC3CC3)CC2)c1 | -8 | 1.05 | – | –
O=C1c2ccccc2C(=O)N1c1nc2c(ccc3ccccc32)s1 | -2 | 0.32 | – | –
CCOC(=O)N1CCC(N2CCc3[nH]nc(/C=C/c4ccccc4)c3C2)CC1 | -15 | 1.29 | – | –
CC(C)(C)c1ccncc1CN1C(=O)[C@H]2CCCCN2C1=O | 16 | -2.04 | – | –
Cc1cc(C)cc(C(=O)Nc2ccc3c(c2)C(=O)Nc2ccccc2O3)c1 | 17 | -3.39 | – | –
CCn1cc(NC(=O)c2cccc(C)n2)cn1 | 2 | -0.26 | – | –
Cc1cc(C)c(S(=O)(=O)NC[C@H](C)O)cc1Br | -7 | 1.28 | – | –
CCCc1nccn1CCCNS(C)(=O)=O | -8 | 1.15 | – | –
O=C(c1cccc(F)c1)N1CCN(c2cc(-n3ccnc3)ncn2)CC1 | -31 | 2.85 | – | –
O=C(N[C@@H](C1CC1)C(F)(F)F)c1[nH]nc2c1CCCC2 | -29 | 3.45 | – | –
CN1CCN(S(=O)(=O)CC(=O)NC[C@@H](c2cccc(Cl)c2)N2CCCC2)CC1 | -2 | 0.37 | – | –
Cc1ccccc1Cn1cnc2c1c(=O)n(C1CCCCC1)c(=O)n2-c1ccccc1Cl | 70 | -7.57 | – | –
Nc1nnc(N[C@H]2COc3ccccc32)[nH]1 | 0 | 0.03 | – | –
O=C(N[C@H]1CC[C@H](Oc2ncc(F)cn2)CC1)N1CCOCC1 | 0 | 0.05 | – | –
CC(C)N(CC(=O)Nc1sc2c(c1C(N)=O)CCCC2)c1ccccc1 | 18 | -2.3 | – | –
Cc1n[nH]c(C)c1[C@@H](N)C(=O)NCCc1ccccc1F | -19 | 2.6 | – | –
CC(C)N1CCN(c2nc3ccccn3c2C#N)CC1=O | -14 | 1.54 | – | –
CN(CCCc1nc(-c2ccccc2)no1)C1(CO)CCOCC1 | -8 | 1.55 | – | –
Cc1[nH]c(=O)sc1S(=O)(=O)NCCN[C@H]1CCCC1(C)C | -6 | 0.8 | – | –

SMILES | % Inhibition [%] | Z score | % Inhibition (2 µM) | Z score (2 µM)
COCc1nc(CNC(=O)[C@H]2CCc3nnnn3CC2)cs1 | -9 | 1.68 | – | –
O=C(CN1C(=O)CCC1=O)NCCc1ccc(Cl)cc1 | -4 | 0.56 | – | –
CCC1(CC)CN(C(=O)c2cc(C)c(C(N)=O)cn2)c2ccccc21 | -11 | 1.94 | – | –
Oc1cccc([C@H]2NCCc3c2[nH]c2ccc(OCc4ccccc4)cc32)c1 | – | – | 12% and 18% | -1.58 and -2.95
Cn1c(CN2CCCC2)nnc1[C@H]1CCCN(c2ccc(Cl)cn2)C1 | 3 | -0.57 | – | –
O=C(c1ccc(N2CCCC2=O)cc1)N1CCC2(CCO2)CC1 | -11 | 1.12 | – | –
Cc1cc(C)n(CCN(C)C(=O)C[C@]2(c3cccc(C(F)(F)F)c3)CC(=O)N(C3CC3)C2=O)n1 | -4 | 0.83 | – | –
Cc1nn(C)c(NC(=O)c2scnc2C2CCCC2)c1C | -16 | 1.41 | – | –
Cc1nc(NC(=O)C[C@H]2CCCCO2)n(C)n1 | -4 | 0.36 | – | –
Cc1ccc(O[C@H]2COCC[C@H]2NC(=O)Cc2c(C)noc2C)cn1 | -5 | 0.65 | – | –
CN1CC[C@H](Nc2ccc(OC3CCC3)c(F)c2)C1=O | -14 | 1.19 | – | –
O=S(=O)(NCCN1CCC[C@H](Cn2cncn2)C1)c1ccccc1 | -5 | 0.44 | – | –
CC[C@H]1CCCCN1S(=O)(=O)CCCS(C)(=O)=O | 7 | -0.59 | – | –
c1csc([C@@H](NC2CCC3(CC2)OCCO3)C2CC2)n1 | 1 | -0.08 | – | –
CCC(C)(C)NC(=O)c1ccc(NCc2noc(Cc3ccccc3)n2)cc1 | 1 | -0.16 | – | –
CC(=O)NCc1csc([C@H]2CCCN(S(=O)(=O)c3ccc(C)cc3C)C2)n1 | -11 | 1.41 | – | –
Cc1nn(CC(=O)N2CCc3ccccc3C2)c(C)c1Cl | -3 | 0.31 | – | –
c1ccc(CN2CCCN(c3ncccn3)CCOCC2)cc1 | -2 | 0.18 | – | –
CCO[C@H]1COC[C@@H]1n1cnc(-c2ccccc2)c1-c1cncn1CC | -11 | 1.66 | – | –
